# From a collection of fitness landscapes (doi:10.1016/j.celrep.2020.107928)
# Over roughly 81,000 sequences, “one-hybrid fitness for binding parS DNA” has its median near -0.17; the highest 2% begin near 0.51. This is one part of the list.
# B1: Caulobacter ParB omega fusion; a variant is named by its letters at X, in order, B8GW30 (parent)
# chain: MESVVVGEPGMSEGRRGLGRGLSALLGEVDAAPAQAPGEQLGGSREAPIEILQRNPDQPRRTFREEDLEDLSNSIREKGVLQPILVRPSPDTAGEYQIVAGERAWRAAQRAGLKTVPIMVRELDDLAVLEIGIIENVQRADLNVLEEALSYKVLMEKFERTQENIAQTIGKSXSHVANXMRLLXLPDEVQSYLVSGELTAXHARAIAAAADPVALAKQIIEGGLSVRETEALARKAPNLSAGKSKGGRPPRVKDTDTQALESDLSSVLGLDVSIDHRGSTGTLTITYATLEQLDDLCNRLTRGI
# Variants of: B1
# Assay: one-hybrid fitness for binding parS DNA (scaled: cognate 1, non-cognate 0); higher = stronger binding
# Conditions: with parS DNA site
# Outline: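 Caulobacter ParB libraries with four specificity codons randomised were screened by bacterial one-hybrid selection in the E. coli USO strain, using a HIS3 reporter whose site lies 19 bp from the promoter. Selection ran for 48 hours at 37°C on M9 lacking histidine, with 0.1 mM IPTG and 5 mM 3-AT. Plasmids were Illumina-sequenced before and after selection, three replicate libraries were pooled, and variants with under 10 reads were dropped. Fitness is the log change in each variant's read ratio to wild type, rescaled against the cognate and non-cognate sites.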
row,Variant,one-hybrid fitness for binding parS DNA
1,HDNL,≤ 0.2
2,CRKV,≤ 0.2
3,RNQY,0.38
4,YQPE,≤ 0.2
5,EWIS,≤ 0.2
6,RQQM,0.344
7,EKHL,≤ 0.2
8,RWMN,0.211
9,WHNT,≤ 0.2
10,PVGR,≤ 0.2
11,RNTM,0.233
12,RHRD,≤ 0.2
13,NLFT,≤ 0.2
14,SQLI,≤ 0.2
15,WAEL,≤ 0.2
16,HSGN,≤ 0.2
17,PTGE,≤ 0.2
18,HMKT,≤ 0.2
19,GPMF,≤ 0.2
20,ICWG,≤ 0.2
21,AWLR,≤ 0.2
22,NPES,≤ 0.2
23,QRHW,≤ 0.2
24,QLVS,≤ 0.2
25,DTVK,≤ 0.2

row,Variant,one-hybrid fitness for binding parS DNA
1,KKHY,≤ 0.2
2,TNQV,≤ 0.2
3,VKRA,≤ 0.2
4,NVDW,≤ 0.2
5,RGMF,≤ 0.2
6,REDG,≤ 0.2
7,NDVT,≤ 0.2
8,SWCS,≤ 0.2
9,MPLT,≤ 0.2
10,AWNT,≤ 0.2
11,MLKC,≤ 0.2
12,SVIN,≤ 0.2
13,AYHY,≤ 0.2
14,DNRC,≤ 0.2
15,HSRD,≤ 0.2
16,EQTF,≤ 0.2
17,QATL,≤ 0.2
18,LMCK,≤ 0.2
19,QFDG,≤ 0.2
20,RAIA,0.461
21,IDSE,≤ 0.2
22,IHAS,≤ 0.2
23,TLHI,≤ 0.2
24,TRPH,≤ 0.2
25,NTTG,≤ 0.2

row,Variant,one-hybrid fitness for binding parS DNA
1,IPPR,≤ 0.2
2,HEHS,≤ 0.2
3,LANI,≤ 0.2
4,TNLD,≤ 0.2
5,PEHG,≤ 0.2
6,QWYR,≤ 0.2
7,YLKS,≤ 0.2
8,PTFV,≤ 0.2
9,TYIS,≤ 0.2
10,KYTK,≤ 0.2
11,SSSW,≤ 0.2
12,ENRC,≤ 0.2
13,DAVV,≤ 0.2
14,VSKF,≤ 0.2
15,TATN,≤ 0.2
16,HVLL,≤ 0.2
17,VILS,≤ 0.2
18,SHTP,≤ 0.2
19,WNHS,≤ 0.2
20,WVTL,≤ 0.2
21,DHWS,≤ 0.2
22,SCDS,≤ 0.2
23,IYSL,≤ 0.2
24,AFVP,≤ 0.2
25,HMFN,≤ 0.2

row,Variant,one-hybrid fitness for binding parS DNA
1,KAHN,≤ 0.2
2,RTGC,0.955
3,RQFK,0.201
4,NHRF,≤ 0.2
5,YYRS,≤ 0.2
6,RQVD,≤ 0.2
7,TPEQ,≤ 0.2
8,LQFG,≤ 0.2
9,GIFS,≤ 0.2
10,EHNM,≤ 0.2
11,CIST,≤ 0.2
12,RQTR,≤ 0.2
13,DKPN,≤ 0.2
14,DTYG,≤ 0.2
15,VSWT,≤ 0.2
16,VIIR,≤ 0.2
17,PRSH,≤ 0.2
18,AVPD,≤ 0.2
19,VLQG,≤ 0.2
20,DLWM,≤ 0.2
21,VPMG,≤ 0.2
22,DVPS,≤ 0.2
23,QMPD,≤ 0.2
